According to paper PMC5700166:
The list shows a part of the results, in another mix than the full data. The list includes weakly bound sequences.

Legend:
Assay in all cases: protein-binding microarray (PBM)
Conditions in all cases: PBM: ~300 nM protein, 6 mM HEPES pH 7.8, 80 mM KCl, 0.5 mM EDTA, 0.5 mM EGTA, 6% glycerol, 35 ng/ul poly-dIdC, 1% milk, 1 h, room temperature; Ap Aiptasia and Nv Nematostella (sea anemones) / Co Capsaspora / Aq Amphimedon (sponge) / Dm Drosophila / Hu human; RHD is the Rel homology domain; high values mean tight binding; most listed sequences are background and not binding sites; double strand, one strand shown
GST-Ap-NF-kB RHD = target: T1, GST-Ap-NF-kB RHD (UniProt A0A913YAJ5)
T1 sequence: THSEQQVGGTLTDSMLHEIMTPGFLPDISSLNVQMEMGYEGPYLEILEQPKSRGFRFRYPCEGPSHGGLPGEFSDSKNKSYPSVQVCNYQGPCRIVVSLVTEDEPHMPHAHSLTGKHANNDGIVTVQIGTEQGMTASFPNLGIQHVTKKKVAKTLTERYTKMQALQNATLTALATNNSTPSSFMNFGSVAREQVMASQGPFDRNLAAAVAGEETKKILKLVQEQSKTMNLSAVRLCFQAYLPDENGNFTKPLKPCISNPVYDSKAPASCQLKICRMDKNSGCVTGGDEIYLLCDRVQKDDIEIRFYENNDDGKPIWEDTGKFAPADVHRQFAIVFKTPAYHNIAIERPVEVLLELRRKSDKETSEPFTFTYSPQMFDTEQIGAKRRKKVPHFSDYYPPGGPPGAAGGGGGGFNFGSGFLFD

[1] = target: T2, GST-Nv-NF-kB (Cys allele) (UniProt E5G601)
T2 sequence: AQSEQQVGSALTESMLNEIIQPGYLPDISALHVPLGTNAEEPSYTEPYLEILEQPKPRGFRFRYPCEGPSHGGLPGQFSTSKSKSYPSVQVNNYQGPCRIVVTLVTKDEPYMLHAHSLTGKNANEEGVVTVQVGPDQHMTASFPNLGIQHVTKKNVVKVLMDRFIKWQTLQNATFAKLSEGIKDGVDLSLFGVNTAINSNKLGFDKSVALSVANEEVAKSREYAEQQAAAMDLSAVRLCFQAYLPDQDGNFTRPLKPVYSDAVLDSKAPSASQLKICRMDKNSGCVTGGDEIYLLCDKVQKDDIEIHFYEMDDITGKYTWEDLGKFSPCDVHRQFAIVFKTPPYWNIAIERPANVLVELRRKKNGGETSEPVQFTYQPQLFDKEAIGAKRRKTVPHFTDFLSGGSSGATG

GST-Co-NF-kB = target: T3, GST-Co-NF-kB (UniProt F1ARL5)
T3 sequence: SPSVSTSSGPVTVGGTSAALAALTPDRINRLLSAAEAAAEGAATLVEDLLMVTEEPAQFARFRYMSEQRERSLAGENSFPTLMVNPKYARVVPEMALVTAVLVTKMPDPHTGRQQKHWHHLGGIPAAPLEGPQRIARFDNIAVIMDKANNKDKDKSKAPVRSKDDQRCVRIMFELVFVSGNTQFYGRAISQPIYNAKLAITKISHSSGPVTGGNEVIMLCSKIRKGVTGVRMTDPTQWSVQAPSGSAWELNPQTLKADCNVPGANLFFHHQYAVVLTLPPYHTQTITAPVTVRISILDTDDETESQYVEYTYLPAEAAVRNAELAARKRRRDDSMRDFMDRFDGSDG

GST-Dm-Relish = target: T4, GST-Dm-Relish (UniProt Q94527)
T4 sequence: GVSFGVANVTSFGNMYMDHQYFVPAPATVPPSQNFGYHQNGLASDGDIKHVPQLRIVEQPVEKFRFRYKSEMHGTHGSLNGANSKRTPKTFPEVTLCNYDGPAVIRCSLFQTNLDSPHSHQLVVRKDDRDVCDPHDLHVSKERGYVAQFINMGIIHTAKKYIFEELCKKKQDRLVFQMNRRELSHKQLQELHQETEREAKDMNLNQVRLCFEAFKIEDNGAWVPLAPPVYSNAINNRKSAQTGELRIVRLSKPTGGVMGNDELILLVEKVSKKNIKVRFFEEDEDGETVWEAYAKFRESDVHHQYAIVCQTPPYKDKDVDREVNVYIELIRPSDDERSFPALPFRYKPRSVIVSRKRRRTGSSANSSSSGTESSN

GST-Aq-NF-kB = target: T5, GST-Aq-NF-kB (UniProt A9Y5G7)
T5 sequence: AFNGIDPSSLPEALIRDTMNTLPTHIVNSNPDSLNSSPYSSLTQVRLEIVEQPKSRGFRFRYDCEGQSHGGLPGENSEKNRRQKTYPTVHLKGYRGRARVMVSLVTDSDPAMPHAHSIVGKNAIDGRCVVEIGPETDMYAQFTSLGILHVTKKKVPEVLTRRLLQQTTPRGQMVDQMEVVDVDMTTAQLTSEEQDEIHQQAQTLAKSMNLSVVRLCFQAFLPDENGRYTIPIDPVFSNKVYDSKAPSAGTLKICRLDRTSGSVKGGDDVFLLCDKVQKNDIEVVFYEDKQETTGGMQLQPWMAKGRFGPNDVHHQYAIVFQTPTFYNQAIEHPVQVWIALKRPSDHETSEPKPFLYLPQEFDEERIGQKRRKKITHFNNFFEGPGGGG

| Sequence | binding signal (GST-Ap-NF-kB RHD) [z-score] | binding signal [1] [z-score] | binding signal (GST-Co-NF-kB) [z-score] | binding signal (GST-Dm-Relish) [z-score] | binding signal (GST-Aq-NF-kB) [z-score] |
| --- | --- | --- | --- | --- | --- |
| CCGATTAACATCAACTCTGTGTGTGATGTTAATCGGGTCTTGATTCGCTTGACGCTGCTG | -0.368 | -0.368 | 0.573 | 0.402 | -0.208 |
| CCGATTAACATCAACATGGAAAATGATGTTAATCGGGTCTTGATTCGCTTGACGCTGCTG | -0.378 | -0.248 | 0.334 | -0.0133 | -0.303 |
| CCGATTAACATCAATGCGGCTAGTGATGTTAATCGGGTCTTGATTCGCTTGACGCTGCTG | 0.208 | -0.469 | -0.131 | -0.523 | -0.325 |
| CCGATTAACATCAAAAACGTAGATGATGTTAATCGGGTCTTGATTCGCTTGACGCTGCTG | -0.636 | -0.272 | 0.325 | -0.299 | -0.469 |
| CCGATTAACATCAGTTGTCTACGTGATGTTAATCGGGTCTTGATTCGCTTGACGCTGCTG | -0.818 | -0.323 | -0.608 | -0.34 | -0.431 |
| CCGATTAACATCATAAAACGTTGTGATGTTAATCGGGTCTTGATTCGCTTGACGCTGCTG | -0.0786 | -0.237 | -0.137 | 0.566 | -0.316 |
| CCGATTAACATCAGATTTACCGCTGATGTTAATCGGGTCTTGATTCGCTTGACGCTGCTG | 0.0251 | 0.309 | 0.383 | -0.049 | -0.077 |
| CCGATTAACATCAAAACGCTAAGTGATGTTAATCGGGTCTTGATTCGCTTGACGCTGCTG | -0.491 | -1 | -0.312 | -0.24 | -0.323 |
| CCGATTAACATCACTAAAGTGTGTGATGTTAATCGGGTCTTGATTCGCTTGACGCTGCTG | -0.127 | 0.289 | -0.0283 | 0.571 | -0.445 |
